# In PubChem BioAssay (NCATS):
# Where “and” joins values, the source holds several entries; their conditions need not be identical. Equal values may be shown once. The shares of active, inactive and inconclusive entries below differ from those in the screen. For part of these data: Where the call is inconclusive, the potency comes from a doubtful curve fit. Calls of active or inactive are those of the source. Unless noted, the call rests on the fitted dose curve; in most records, active means well fitted curve in the direction sought with a large enough effect; inconclusive means small, poorly fitted or top-dose-only effect, or another doubt; inactive means no such curve, though single readings can be large; an effect the other way counts as inactive or inconclusive.
# Columns and labels:
# [1] = target: N-terminal Xaa-Pro-Lys N-methyltransferase 1 (Homo sapiens) (UniProt Q9BV86); experiment: Confirmatory qHTS for Inhibitors of N-terminal methyltransferase 1 (NTMT1): MTaseGlo Assay (AID 1645874); further: nearly all actives have a fitted effect of over 65% in size; further: potency means the concentration at half of the fitted maximal effect;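 on activity change, negative = inhibition: luminescence from SAH made as NTMT1 methylates SPKRIA peptide using SAM; 0% = DMSO control and -100% = no-enzyme control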
# Summary of the method: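 NTMT1 (125 nM) preincubated 15 min with compound and 100 uM SAM, then 1 uM SPKRIA peptide added for 30 min at room temperature. SAH detected by MTase-Glo luminescence; normalized to no-enzyme and DMSO controls, fitted to 4-parameter Hill.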
# [2] = Primary qHTS to identify inhibitors of SARS-CoV-2 cell entry (AID 1645846; calls by dose curve; further: nearly all actives have a fitted effect of over 45% in size; further: potency means the concentration at half of the fitted maximal effect); conditions: activity change, negative = inhibition: at 57.1 µM (top of the series)
# Summary of the method: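 Inhibition of spike-mediated entry was scored in human ACE2-transfected Expi293F cells. Particles were MLV-pseudotyped with Wuhan-Hu-1 S carrying a 19-aa C-terminal deletion; signal was luciferase after two days, scaled between spike PP and fusion-protein-free PP.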
# [3] = VSVG counterscreen qHTS to identify inhibitors of SARS-CoV-2 cell entry (AID 1645847; calls by dose curve; further: potency means the concentration at half of the fitted maximal effect; nearly all actives have a fitted effect of over 65% in size); conditions: VSV-G pseudotyped particle entry, luciferase; activity change, negative = inhibition: at 57.2 µM (top of the series)
# Summary of the method: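 Luminescence from a luciferase reporter, normalised to bald particle and VSV-G pseudotyped particle wells, is the read-out. Cells are HEK293 expressing human ACE2, exposed to compound 1 h before a 48 h particle infection at 37 °C.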
# [4] = target: Cytochrome P450 1A2 (Homo sapiens) (UniProt P05177); experiment: p450-cyp1a2 (AID 410; calls by dose curve;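 further: top concentration of the series differs between compounds; -100% = full effect of reference inhibitor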)
# Summary of the method: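 Luminescent readout of luciferin formed from Luciferin-ME by human CYP1A2; data normalized against complete inhibition by 57 uM furafylline. Enzyme 20nM, substrate 100uM at Km, 100mM KPO4 buffer, 60 min reaction at room temperature.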
# [5] = NFAT Signaling Pathway (AID 444; active means well fitted curve in either direction with a large enough effect, not every such curve was filed as active; inconclusive means small, poorly fitted or top-dose-only effect, or another doubt;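 further: carbachol stimulus at about its EC50 of 1 µM final; on the % scale 0 is the no-effect control and ±100 the full control effect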); conditions: Jurkat NFAT-bla M1, carbachol, beta-lactamase ratio, 5 h; at 7.69 µM (top of the series) unless noted
# Summary of the method: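 Jurkat cells with NFAT-driven β-lactamase reporter and co-expressed M1 receptor, stimulated with carbachol (final 1 uM, ~EC50), compound titration, 5 h at 37 °C. CCF4 loaded 1 h at RT; 460/530 nm ratio gave %activity and AC50.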
# [6] = target: 3',5'-cyclic-AMP phosphodiesterase 4B (Homo sapiens) (UniProt Q07343); experiment: qHTS Assay for Inhibitors of PDE-IV (AID 607; active means well fitted activation curve with a large enough effect in the main read-out, with a control signal flat, not every such curve was filed as active; inconclusive means small, poorly fitted or top-dose-only effect, or effect the other way, or a change in a side signal; further: potency means the concentration at half of the fitted maximal effect); conditions: HEK293 ACTOne CNG channel cells, membrane potential fluorescence; activation (PDE inhibition): at 22.9 µM (top of the series)
# Summary of the method: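 HEK293 ACTOne cells with CNG channel (1000/well), endogenous PDE4; membrane potential dye, compounds up to 22.9 uM final. Fluorescence Ex 535/Em 590; RO 20-1724 (100 uM final) as reference.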
# [7] = qHTS Assay for Identification of Small Molecule Antagonists for Thrombopoietin (TPO) Signaling Pathway (AID 918); conditions: TPO-dependent cell signaling reporter, antagonist mode; activity change, negative = inhibition: at 38.5 µM (top of the series); further: nearly all actives have a fitted effect of over 60% in size
# Summary of the method: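 Ba/F3 (murine, hTPO-R, GPIIb-luc reporter); overnight IL-3 withdrawal; cpd + TPO 26 pM final (EC50); 24 h 37 C/5% CO2; Steadylite luminescence after 10 min RT.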
# [8] = target: Muscarinic acetylcholine receptor M1 (Rattus norvegicus) (UniProt P08482); experiment: qHTS Assay for Antagonists of Acetylcholine Muscarinic M1 Receptor: Measurement of IP-One Response (AID 944); further: nearly all actives have a fitted effect of over 75% in size
# [9] = target: DNA repair nuclease/redox regulator APEX1 (Homo sapiens) (UniProt P27695); experiment: qHTS Validation Assay for Inhibitors of the Human Apurinic/apyrimidinic Endonuclease 1 (APE1) (AID 1705; further: potency means the concentration at half of the fitted maximal effect)
# Summary of the method: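 qHTS, 1536-well. APE1 + cpd 15 min RT → 50 nM TAMRA/BHQ-2 THF-abasic dsDNA substrate → kinetic fluorescence, 3 reads/60 s; delta(read3−read1) = reaction progress. No-enzyme buffer = negative control.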
# [10] = target: Endonuclease 4 (Escherichia coli (strain K12)) (UniProt P0A6C1); experiment: Counterscreen for APE1 Inhibitors: qHTS Validation Assay for Inhibitors of Endonuclease IV (AID 1708); further: potency means the concentration at half of the fitted maximal effect
# Summary of the method: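 E. coli EndoIV at 2 nM final, preincubated 15 min at room temperature with compound, then 50 nM TAMRA/BHQ-2 THF abasic-site duplex added. Buffer: 50 mM Tris-HCl pH 7.5, 50 mM NaCl, 2 mM MgCl2, 1 mM DTT, 0.01% Tween-20. Kinetic fluorescence increase, third minus first read.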
# [11] = qHTS for differential inhibitors of proliferation of Plasmodium falciparum line 7G8 (AID 1815);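 further: potency means the concentration at half of the fitted maximal effect; parasite growth measured after three days of incubation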
# [12] = qHTS for differential inhibitors of proliferation of Plasmodium falciparum line W2 (AID 1883); conditions: Potency: Plasmodium falciparum W2 proliferation inhibition;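 further: potency means the concentration at half of the fitted maximal effect; parasites grown with compound for 72 h before lysis and staining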
# [13] = target: RecQ-like DNA helicase BLM (Homo sapiens) (UniProt P54132); experiment: qHTS Validation Assay for Inhibitors of Bloom's syndrome helicase (BLM) (AID 2364);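 further: plate controls were DMSO vehicle for no effect and enzyme-free control for full effect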
# Summary of the method: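 50 nM BLM preincubated 15 min at room temperature with compound in pH 8.0 Tris buffer containing 2.5 ug/ml poly(dI-dC); started with 200 nM TAMRA/BHQ-2 forked duplex and 2 mM ATP (final). Unwinding read as TAMRA fluorescence increase, two reads 2 h apart.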
# [14] = Validation screen for small molecules that induce DNA re-replication in MCF 10A normal breast cells (AID 463097); further: 0% is about no effect; nearly all actives have a fitted effect of over 60% in size
# Summary of the method: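 Image-based qHTS: normal breast cells are incubated with compound for 48 hr, stained with Hoechst, and scanned for total nuclear fluorescence. Compounds raising the fraction of nuclei with elevated DNA content count as re-replication inducers.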
# [15] = target: Chromobox protein homolog 1 (Homo sapiens) (UniProt P83916); experiment: qHTS Validation Assay for Inhibitors of HP1-beta Chromodomain Interactions with Methylated Histone Tails (AID 488953); further: potency means the concentration at half of the fitted maximal effect; nearly all actives have a fitted effect of over 50% in size
# Summary of the method: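 50 nM HP1-beta + 50 nM biotin-H3(1-18)K9me3, PBS pH 7.4, 0.01% Tween-20, 30 min RT; compound added, 30 min RT; AlphaScreen beads 10 ug/mL final, 30 min dark; luminescence read.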
# [16] = target: D(1A) dopamine receptor (Homo sapiens) (UniProt P21728); experiment: HTS Assay for Allosteric Agonists of the Human D1 Dopamine Receptor: Primary Screen for Agonists (AID 488981); further: potency means the concentration at half of the fitted maximal effect
# Summary of the method: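 Tetracycline-induced HEK293 Trex D1 cells with forced coupling to calcium, loaded with no-wash calcium dye; kinetic fluorescence read 180 s after compound addition for agonism, then a further 180 s after an EC20 dopamine challenge for potentiation.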
# [17] = target: D(1A) dopamine receptor (Homo sapiens) (UniProt P21728); experiment: HTS Assay for Allosteric Agonists of the Human D1 Dopamine Receptor: Primary Screen for Antagonists (AID 488983);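 further: calcium flux response to an EC80 dopamine challenge measured with no-wash dye; on the % scale 0 is the no-effect control and ±100 the full control effect; nearly all actives have a fitted effect of over 65% in size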
# Summary of the method: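 Cells are induced with tetracycline and incubated overnight at 30 C, then loaded with calcium dye for 30 to 90 minutes at room temperature. Compound addition is followed by a 180 s read, then an EC80 dopamine addition and another 180 s read.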
# Tags describe the fitted curve by direction and shape.
# Sequence of UniProt P21728 (P21728 whole entry, looked up): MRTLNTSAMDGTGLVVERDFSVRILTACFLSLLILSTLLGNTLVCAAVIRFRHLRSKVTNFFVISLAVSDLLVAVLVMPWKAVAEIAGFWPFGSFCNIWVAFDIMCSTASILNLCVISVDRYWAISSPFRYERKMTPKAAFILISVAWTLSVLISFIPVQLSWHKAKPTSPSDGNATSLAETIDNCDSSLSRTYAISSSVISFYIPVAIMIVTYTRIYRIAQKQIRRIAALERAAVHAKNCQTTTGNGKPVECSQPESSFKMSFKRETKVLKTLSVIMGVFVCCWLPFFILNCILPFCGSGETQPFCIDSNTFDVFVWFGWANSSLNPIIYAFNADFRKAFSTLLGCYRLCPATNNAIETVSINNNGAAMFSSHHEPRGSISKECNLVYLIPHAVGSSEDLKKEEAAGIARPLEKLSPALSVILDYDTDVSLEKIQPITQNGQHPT
# Sequence of UniProt P05177 (P05177 whole entry, looked up): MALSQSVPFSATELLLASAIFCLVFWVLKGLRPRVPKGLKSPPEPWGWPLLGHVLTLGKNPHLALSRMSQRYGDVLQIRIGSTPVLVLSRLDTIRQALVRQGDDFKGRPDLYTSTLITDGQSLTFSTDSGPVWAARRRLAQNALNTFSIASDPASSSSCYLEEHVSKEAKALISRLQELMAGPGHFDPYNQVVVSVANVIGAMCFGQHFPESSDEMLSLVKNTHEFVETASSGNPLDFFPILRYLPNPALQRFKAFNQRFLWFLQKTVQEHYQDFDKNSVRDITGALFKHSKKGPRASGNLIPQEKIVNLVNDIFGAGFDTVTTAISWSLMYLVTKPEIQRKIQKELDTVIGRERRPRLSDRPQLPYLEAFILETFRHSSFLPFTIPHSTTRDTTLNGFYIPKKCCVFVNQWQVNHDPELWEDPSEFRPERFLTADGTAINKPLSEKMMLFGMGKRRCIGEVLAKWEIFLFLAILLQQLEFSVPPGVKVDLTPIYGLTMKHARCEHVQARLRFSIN
# Sequence of UniProt Q07343 (Q07343 whole entry, looked up): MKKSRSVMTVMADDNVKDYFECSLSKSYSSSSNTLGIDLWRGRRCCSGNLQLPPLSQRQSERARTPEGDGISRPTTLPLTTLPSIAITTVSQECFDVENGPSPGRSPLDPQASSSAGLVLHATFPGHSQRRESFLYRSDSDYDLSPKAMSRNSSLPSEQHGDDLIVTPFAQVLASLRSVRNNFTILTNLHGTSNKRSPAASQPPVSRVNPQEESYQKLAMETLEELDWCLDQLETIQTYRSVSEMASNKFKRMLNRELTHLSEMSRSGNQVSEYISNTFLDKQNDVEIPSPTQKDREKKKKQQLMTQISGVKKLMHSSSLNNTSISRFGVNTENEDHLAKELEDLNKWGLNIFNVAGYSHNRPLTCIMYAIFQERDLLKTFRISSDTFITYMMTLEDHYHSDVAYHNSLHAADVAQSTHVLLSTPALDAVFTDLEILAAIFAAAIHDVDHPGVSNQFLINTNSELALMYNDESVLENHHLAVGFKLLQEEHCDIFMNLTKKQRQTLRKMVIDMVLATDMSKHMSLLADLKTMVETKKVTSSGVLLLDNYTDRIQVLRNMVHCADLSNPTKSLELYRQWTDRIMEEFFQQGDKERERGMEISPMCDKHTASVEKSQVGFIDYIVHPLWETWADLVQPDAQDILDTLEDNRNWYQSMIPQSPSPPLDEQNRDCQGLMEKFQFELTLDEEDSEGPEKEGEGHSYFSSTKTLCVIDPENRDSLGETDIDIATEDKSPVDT
# Sequence of UniProt Q9BV86 (Q9BV86 whole entry, looked up): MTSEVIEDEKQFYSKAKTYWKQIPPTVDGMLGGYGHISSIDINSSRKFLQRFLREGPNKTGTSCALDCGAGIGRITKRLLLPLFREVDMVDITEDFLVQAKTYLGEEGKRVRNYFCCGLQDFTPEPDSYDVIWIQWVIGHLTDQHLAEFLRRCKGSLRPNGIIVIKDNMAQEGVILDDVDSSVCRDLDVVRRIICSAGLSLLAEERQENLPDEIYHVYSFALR
# Sequence of UniProt P08482 (P08482 whole entry, looked up): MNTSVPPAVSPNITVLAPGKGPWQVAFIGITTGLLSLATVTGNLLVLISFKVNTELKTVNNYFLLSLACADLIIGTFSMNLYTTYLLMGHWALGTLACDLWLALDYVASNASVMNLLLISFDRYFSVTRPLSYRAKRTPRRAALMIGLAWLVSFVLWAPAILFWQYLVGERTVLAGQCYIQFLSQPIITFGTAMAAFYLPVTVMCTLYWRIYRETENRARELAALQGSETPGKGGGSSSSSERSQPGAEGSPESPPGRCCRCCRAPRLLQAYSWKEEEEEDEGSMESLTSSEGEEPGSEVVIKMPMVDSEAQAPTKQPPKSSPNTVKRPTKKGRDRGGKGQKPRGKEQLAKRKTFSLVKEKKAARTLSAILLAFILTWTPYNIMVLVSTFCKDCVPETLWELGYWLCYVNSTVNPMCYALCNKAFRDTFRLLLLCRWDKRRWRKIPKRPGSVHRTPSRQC
# Sequence of UniProt P27695 (P27695 whole entry, looked up): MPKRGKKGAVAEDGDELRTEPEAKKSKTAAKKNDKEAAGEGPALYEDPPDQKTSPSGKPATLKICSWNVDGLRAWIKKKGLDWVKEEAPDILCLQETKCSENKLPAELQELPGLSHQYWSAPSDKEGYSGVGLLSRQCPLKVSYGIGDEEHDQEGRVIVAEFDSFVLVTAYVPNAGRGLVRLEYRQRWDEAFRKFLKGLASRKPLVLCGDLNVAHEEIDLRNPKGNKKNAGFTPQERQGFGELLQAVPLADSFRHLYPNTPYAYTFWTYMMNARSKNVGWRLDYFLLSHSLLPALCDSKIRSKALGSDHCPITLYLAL
# Sequence of UniProt P83916 (P83916 whole entry, looked up): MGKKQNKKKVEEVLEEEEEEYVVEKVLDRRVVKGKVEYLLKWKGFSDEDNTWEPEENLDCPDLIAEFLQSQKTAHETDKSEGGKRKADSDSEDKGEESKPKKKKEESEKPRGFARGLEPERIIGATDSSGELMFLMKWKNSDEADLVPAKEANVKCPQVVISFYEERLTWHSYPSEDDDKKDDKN
# Sequence of UniProt P54132 (P54132 whole entry, looked up): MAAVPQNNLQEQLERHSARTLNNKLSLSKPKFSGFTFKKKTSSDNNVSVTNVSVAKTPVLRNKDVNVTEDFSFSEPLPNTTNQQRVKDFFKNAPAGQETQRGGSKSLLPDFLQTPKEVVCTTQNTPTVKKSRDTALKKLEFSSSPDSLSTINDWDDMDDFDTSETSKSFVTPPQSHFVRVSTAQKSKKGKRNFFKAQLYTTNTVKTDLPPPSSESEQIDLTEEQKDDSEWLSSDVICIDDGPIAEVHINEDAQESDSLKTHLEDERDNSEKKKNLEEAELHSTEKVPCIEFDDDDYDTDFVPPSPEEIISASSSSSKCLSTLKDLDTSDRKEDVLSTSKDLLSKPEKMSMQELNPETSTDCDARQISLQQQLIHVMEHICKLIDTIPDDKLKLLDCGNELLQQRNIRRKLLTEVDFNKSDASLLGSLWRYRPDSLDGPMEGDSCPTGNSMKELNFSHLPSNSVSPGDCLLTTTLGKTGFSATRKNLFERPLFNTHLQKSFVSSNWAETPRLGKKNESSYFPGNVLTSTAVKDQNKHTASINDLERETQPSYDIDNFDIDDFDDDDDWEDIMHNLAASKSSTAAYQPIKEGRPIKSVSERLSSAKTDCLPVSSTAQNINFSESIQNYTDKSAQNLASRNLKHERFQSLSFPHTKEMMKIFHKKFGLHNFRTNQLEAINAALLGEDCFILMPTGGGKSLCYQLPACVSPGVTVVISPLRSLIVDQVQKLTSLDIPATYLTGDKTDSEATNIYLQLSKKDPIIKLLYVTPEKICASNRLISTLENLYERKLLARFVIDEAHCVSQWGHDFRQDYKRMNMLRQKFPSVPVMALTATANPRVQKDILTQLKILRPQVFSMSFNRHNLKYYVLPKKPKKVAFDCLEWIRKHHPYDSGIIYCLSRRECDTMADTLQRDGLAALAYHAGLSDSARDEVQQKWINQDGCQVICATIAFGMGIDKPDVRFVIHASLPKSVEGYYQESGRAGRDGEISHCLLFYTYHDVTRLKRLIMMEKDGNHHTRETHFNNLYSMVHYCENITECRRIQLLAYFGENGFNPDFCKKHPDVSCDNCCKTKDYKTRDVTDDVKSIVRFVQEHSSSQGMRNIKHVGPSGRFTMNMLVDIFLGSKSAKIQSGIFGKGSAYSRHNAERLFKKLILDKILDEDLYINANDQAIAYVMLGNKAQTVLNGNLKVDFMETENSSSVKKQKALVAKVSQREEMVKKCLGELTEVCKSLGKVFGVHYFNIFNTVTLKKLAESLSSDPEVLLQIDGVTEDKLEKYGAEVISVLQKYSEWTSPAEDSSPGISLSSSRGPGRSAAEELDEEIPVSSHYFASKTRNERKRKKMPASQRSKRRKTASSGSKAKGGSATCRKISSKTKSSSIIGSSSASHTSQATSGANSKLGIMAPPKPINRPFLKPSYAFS
smiles,measurement,setting,value
CCOc1ccc(CN(CCc2ccc3c(c2)OCO3)Cc2cccc(Br)c2)cc1,Potency,[1],inactive
CCOC(=O)[C@H]1O[C@@H]1C(=O)N[C@@H](CC(C)C)C(=O)NCCC(C)C,Potency,[2],"inconclusive: 1780 nM [inhibitor, full curve, poor fit]"
same,Potency,[3],"inconclusive: 1710 nM [inhibitor, partial curve]"
CC[C@H]1OC(=O)C[C@@H](O)[C@H](C)[C@@H](OC2OC(C)C(O)C(N(C)C)C2O)[C@@H](CCN2CCCCC2)C[C@@H](C)C(=O)/C=C/C(C)=C/[C@@H]1CN1CCCCC1 (stereo partly specified),Potency,[2],"inconclusive: 15800 nM [inhibitor, partial curve, poor fit]"
C=CCN(/C=C1\C(=O)O[C@@H](COC)[C@]2(C)C1=C(O)C(=O)C1=C2[C@@H](OC(C)=O)C[C@]2(C)C(=O)CC[C@H]12)CC=C,Potency,[2],inactive
C[N+](C)(C)CC#CCN1CCCC1=O,Potency,[4],inactive
same,"activity change, negative = inhibition",[5],inconclusive: 34.8% [activator] [at 38 µM]
same,Potency,[6],"inconclusive: 15.8 µM [inhibitor, partial curve, poor fit] and inconclusive: 2.39 µM [activator, partial curve]"
same,"activity change, negative = inhibition",[7],inconclusive: -14.7% [phenotype inactive]
same,Potency,[8],inactive
same,Potency,[9],"inconclusive: 39800 nM [inhibitor, single point]"
same,Potency,[10],"inconclusive: 794 nM [inhibitor, full curve, poor fit]"
same,Potency,[11],"inconclusive: 8910 nM [inhibitor, single point]"
same,Potency,[12],"inconclusive: 35.5 nM [inhibitor, full curve]"
same,Potency,[13],inactive
same,Potency,[14],inactive
same,Potency,[15],"inconclusive: 6 nM [inhibitor, full curve]"
same,Potency,[16],"inconclusive: 794 nM [activator, full curve, poor fit]"
same,Potency,[17],inactive
same,Potency,[1],"inconclusive: 4880 nM [inhibitor, full curve]"
Cc1[nH]c(/C=C2\C(=O)Nc3ccccc32)c(C)c1CCC(=O)O,Potency,[2],"inconclusive: 39800 nM [inhibitor, single point]"
